The labels stand for the following.
B1: chr2:65312585:65312700:-|3pUTR|ENSG00000198369|unk|FALSE|unique (ssRNA)
RNA: GGGAGUUCUACAGUCCGACGAUCUGGACCAGGGCUAGAAUGGGGAUUUCAGGUUUCUAUGAGCCUCCCCAUUACCCCUAAAGUAGAACAUUUUUUAAAUUGUGUUGCCACCACUUCUAAAAAUUUAGCAAUAUUAGAAUAGGACAACAGAGGAUUGAGCAUCA
B2: chr1:92387783:92387894:+|3pUTR|ENSG00000122484|unk|total|mutant (ssRNA)
RNA: GGGAGUUCUACAGUCCGACGAUCGGGAGCUCCGUGGGCAAGGAGGCCGGGAUAUAAUUUCUCUUCUUGGCUCCACCAGUAAUCCGCUCUGUGGCCCAGUCACCUAAACUUUCUGGACUUCAGUUCAGGUUGUAUGGCAGCCGGCAACAGAGGAUUGAGCAUCA
B3: chr21:30561100:30561289:-|CDS|ENSG00000244362|control|control|control (ssRNA)
RNA: GGGAGUUCUACAGUCCGACGAUCAGCUACUAUGGAGGCCUAGGCUACGGCUGUGGAGGAUUCGGUGGCCUGGGCUAUGGCUAUAGCUGUGGAUGUGGCAGCUUCCGCAGACUGGGCUAUGGCUGUGGCUAUGGAGGCUACAGACAACAGAGGAUUGAGCAUCA
B4: chr12:98549999:98550103:+|3pUTR|ENSG00000120802|unk|FALSE|unique (ssRNA)
RNA: GGGAGUUCUACAGUCCGACGAUCUGUUUCCCAUACUGUUUUCAGCCUUUUGUUUAUAAUUAGAAAUUGUGAGAAGCUUCAUUUAGUGUUUAAAAAUGUGGGGAGAUAAAUCAGACUUAACAUGUAUGUAAGAUCAAUUCACUUCAACAGAGGAUUGAGCAUCA
B5: chr12:104760787:104760888:+|3pUTR|ENSG00000171310|unk|total|mutant (ssRNA)
RNA: GGGAGUUCUACAGUCCGACGAUCUUCUUUUCUAAUGGCAUUGAAACUUUAAAAAAAAUGGAUUCAACUGUUUUUGCAGAAUGCCGAAAGUAUUCUGUGUCCUUGGUUAAAGAAAUCCACUUGUGAAGUGUGCCUGGAAAAUGACAACAGAGGAUUGAGCAUCA
B6: chr4:75812186:75812332:+|CDS|ENSG00000138768|unk|total|mutant (ssRNA)
RNA: GGGAGUUCUACAGUCCGACGAUCAGAGCAGCUGGAUUCAUCUAACCGUACCAUUGCCAUUUUACAAACUGAGAAAGACAAACCCGAGUUGGAAAUUACAGAUUCUAAAAAAGAACAAGAUGAUCUCUUGGUGCUCUUGGCCGACAACAGAGGAUUGAGCAUCA

This is one part of the list.

This test concerns the target MSI1 full-length (mouse, UniProt Q61474 1-362). The experiment in a line: nsRBNS (natural sequence RNA bind-n-seq); RBNS binding buffer (assumed for nsRBNS): 25 mM Tris pH 7.5, 150 mM KCl, 3 mM MgCl2, 0.01% Triton X-100, 500 ug/ml BSA, 20 U/ml SUPERase-In, 4 C; UNK is unkempt and MSI1 is Musashi-1; names of the RNAs are library labels; protein concentration not given here; high values mean tight binding.
UniProt Q61474, sequence (Q61474 whole entry): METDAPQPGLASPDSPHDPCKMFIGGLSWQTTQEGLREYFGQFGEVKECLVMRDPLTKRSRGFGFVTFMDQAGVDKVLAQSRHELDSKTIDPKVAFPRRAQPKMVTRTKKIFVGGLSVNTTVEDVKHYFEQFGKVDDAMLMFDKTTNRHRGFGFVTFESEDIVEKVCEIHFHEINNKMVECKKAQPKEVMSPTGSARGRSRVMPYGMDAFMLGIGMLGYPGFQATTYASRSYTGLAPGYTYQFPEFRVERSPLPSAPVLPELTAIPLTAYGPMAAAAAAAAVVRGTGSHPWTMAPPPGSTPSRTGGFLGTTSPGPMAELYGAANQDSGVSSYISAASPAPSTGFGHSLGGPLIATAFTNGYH
Molecule B1 showed a binding signal of 11.6 enrichment R.
For B2 the value was 0.383 enrichment R.
For B3 the value was 0.462 enrichment R.
For B4 the value was 27.3 enrichment R; for B5, 0.231 enrichment R.
B6: the binding signal turned out to be 0.367 enrichment R.

For the origin of these results see publication PMC12136788.
